{"source": "PubChem BioAssay AID1963576", "about": "(National Center for Advancing Translational Sciences (NCATS), 2024)", "note": "Hit rate of the full screen: of about 46,000 compounds, about 60 (0.1%) were called active. About 3% were inconclusive and are not listed. The call rests on the fitted dose curve; in most records, active means well fitted inhibition curve with a large enough effect; inconclusive means small, poorly fitted or top-dose-only effect; inactive means no such curve, though single readings can be large or run the other way. The list shows a part of the results."}
{"experiment": "Primary qHTS assay for Inhibitors of ovarian cancer metastasis using an organotypic tumor microenvironment (TME) model; further: nearly all actives have a fitted effect of over 65% in size;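 on activity change, negative = inhibition: plate controls were DMSO wells for no effect and tomatine positive control wells for full effect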.", "conditions": "SKOV3ip1-GFP adhesion/invasion on 3D omental model, fluorescence; series mostly up to 45.8 µM; activity change, negative = inhibition: at the top concentration", "method_in_brief": "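qHTS, 4-pt dose (0.36-46 umol/L); SKOV3ip1-GFP, 1,200 cells/well, no FBS; primary omental fibroblast/mesothelial co-culture 48 h pre-grown; 2 h RT + 16 h 37 C; PBS wash, 4% PFA; GFP count 488/509 nm.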"}
{"compound": "O=C(Nc1sc2c(c1C(=O)Nc1ccc(Cl)cc1)CCCC2)c1cccs1", "activity change, negative = inhibition": "inactive: 2.6%"}
{"compound": "Cc1nnc(SCc2ccccc2Cl)c2cc3sccc3n12", "outcome": "inactive"}
{"compound": "Cc1cc(C)c(NC(=O)CN2c3ccccc3S(=O)(=O)c3ccccc32)c(C)c1", "activity change, negative = inhibition": "inactive: 0.76%"}
{"compound": "Clc1ccc2nsnc2c1NC1=NCCN1", "activity change, negative = inhibition": "inactive: -0.564%"}
{"compound": "O=C(NCCCN1CCN(c2ccccc2F)CC1)c1cc2c(Cl)nc3ccccc3c2s1", "outcome": "inactive"}
{"compound": "COCC(C)NC(=O)c1cnn2c(C(F)F)cc(-c3ccccc3)nc12", "note": "(stereo not drawn)", "activity change, negative = inhibition": "inactive: 4.24%"}
{"compound": "CN(C(=O)Cn1cc(S(=O)(=O)N2CCN(c3ccccc3F)CC2)c2ccccc2c1=O)c1ccc(Cl)cc1", "outcome": "inactive"}
{"compound": "COc1cc(OC)c(NC(=O)C(NS(=O)(=O)c2cccc3nsnc23)c2ccccc2)cc1Cl", "note": "(stereo not drawn)", "activity change, negative = inhibition": "inactive: 1.46%"}
{"compound": "COC(=O)C1=CO[C@@H](O)[C@@H]2C(CO)=CC[C@@H]12", "activity change, negative = inhibition": "inactive: -5.62%"}
{"compound": "CCOc1ccc(NC(=O)c2cnn(-c3ccc(C)c(Cl)c3)c2C2CCNCC2)cc1", "activity change, negative = inhibition": "inactive: -3.58%"}
{"compound": "Cc1ccc(CN2COc3cc(C)c4c(oc(=O)c5ccccc54)c3C2)cc1", "activity change, negative = inhibition": "inactive: 9.71%"}
{"compound": "Cc1cc(Nc2cc(N3CCN(C)CC3)nc(Sc3ccc(NC(=O)C4CC4)cc3)n2)n[nH]1", "activity change, negative = inhibition": "inactive: -26.5%"}
{"compound": "COc1ccc(-c2[nH]c(-c3ccccc3)nc2SCC(=O)Nc2ccc3c(c2)OCCO3)cc1", "activity change, negative = inhibition": "inactive: -11.9%"}
{"compound": "CCOc1cc(C2NC(=O)c3c(sc4c3CCN(C)C4)N2)ccc1OC(=O)c1ccccc1Cl", "note": "(stereo not drawn)", "activity change, negative = inhibition": "inactive: -2.56%"}
{"compound": "Cc1ccc2[nH]c(C(=O)Nc3ccccc3)cc2c1", "activity change, negative = inhibition": "inactive: 11.9%"}
{"compound": "CCOC(=O)c1cc(-c2ccccc2)n(CC(=O)NC2CCC(C)CC2)c1C", "note": "(stereo not drawn)", "outcome": "inactive"}
{"compound": "COc1ccc(-c2noc(CSc3nnc(Cc4ccccc4)n3-c3ccccc3)n2)cc1OC", "outcome": "inactive"}
{"compound": "CC(C)Oc1ccc2c(=O)c(-c3ccccc3)coc2c1", "activity change, negative = inhibition": "inactive: -9.23%"}
{"compound": "COc1ccc(NC(=O)Cn2c(=O)cc(C)c3c(C)nn(-c4cccc(Cl)c4C)c32)cc1OC", "outcome": "inactive"}
{"compound": "O=C(NC1CC(=O)N(c2ccc3c(c2)OCCO3)C1)c1c(F)cccc1Cl", "note": "(stereo not drawn)", "activity change, negative = inhibition": "inactive: -5.33%"}
{"compound": "O=C(NCCc1csc(-c2ccc(F)cc2)n1)c1cccs1", "activity change, negative = inhibition": "inactive: -2.97%"}
{"compound": "Cc1ccc(S(=O)(=O)CCC(=O)Nc2ccc(Br)cc2C)cc1", "activity change, negative = inhibition": "inactive: -0.285%"}
{"compound": "CCOC(=O)c1cnc2c(ccc3ccccc32)c1Nc1ccccc1OC", "outcome": "inactive"}
{"compound": "Cc1ccc(-c2nn(-c3ccc(F)cc3F)c3c2cnc2c(F)cccc23)cc1", "activity change, negative = inhibition": "inactive: -5.59%"}
{"compound": "Cc1ccc(NC(=O)CSc2nc3ccccc3c3nc(CCc4c(C)n[nH]c4C)nn23)c(C)c1", "activity change, negative = inhibition": "inactive: 1.97%"}
{"compound": "COCCNc1oc(-c2ccc(COc3ccc(OC)cc3)o2)nc1C#N", "activity change, negative = inhibition": "inactive: 2.11%"}
{"compound": "Cc1ccc2c(c1)c(=O)c(C(=O)c1ccc3c(c1)OCO3)cn2Cc1cccc(F)c1", "activity change, negative = inhibition": "inactive: 0.976%"}
{"compound": "Cc1ccc2nc(N3CCN(c4cccc(Cl)c4)CC3)c3nnnn3c2c1", "outcome": "inactive"}
{"compound": "Cc1ccc(C(=O)CSc2ncc3c(n2)-c2ccccc2N(Cc2ccc(Cl)cc2)S3(=O)=O)cc1", "activity change, negative = inhibition": "inactive: -3.95%"}
{"compound": "CCCCOc1ccc(C(=O)Nc2ccc(F)cc2F)cc1", "activity change, negative = inhibition": "inactive: -15.7%"}
{"compound": "Cc1nc2c(C(=O)O)cnn2c(C)c1Cc1ccccc1", "activity change, negative = inhibition": "inactive: -6.69%"}
{"compound": "CCCc1nn2c(=O)cc(COC(=O)c3ccc(NC(=O)CCc4ccccc4)cc3)nc2s1", "activity change, negative = inhibition": "inactive: -8.24%"}
{"compound": "Cc1ccccc1C(=O)Nc1nc2nc(C)c(C)c(=O)n2[nH]1", "activity change, negative = inhibition": "inactive: 3.27%"}
{"compound": "CCc1ccc2oc(-c3cccc(NC(=O)c4cc5ccccc5o4)c3)nc2c1", "outcome": "inactive"}
{"compound": "COc1cccc(NC(=O)c2sc3nc4n(c(=O)c3c2C)CCC4)c1", "activity change, negative = inhibition": "inactive: -13.6%"}
{"compound": "Cc1cc2cc3c(C)cc(=O)oc3c(C)c2o1", "activity change, negative = inhibition": "inactive: 5.84%"}
{"compound": "CCCCOc1ccc(CNC(=O)c2ccc(-c3nc(CN4CCc5ccccc54)c(C)o3)cc2)cc1", "activity change, negative = inhibition": "inactive: -17.6%"}
{"compound": "CC(=O)Nc1ccccc1-c1nc2ccccc2n(CC(=O)c2ccc(Br)cc2)c1=O", "activity change, negative = inhibition": "inactive: -22.3%"}
{"compound": "CC1=C(C(N)=O)C(c2ccc(C)cc2)n2nc(SCc3ccccc3F)nc2N1", "note": "(stereo not drawn)", "activity change, negative = inhibition": "inactive: 9.95%"}
{"compound": "CCOC(=O)c1cccc(NC(=O)c2cc(S(=O)(=O)N3CCCC(C)C3)cn2C)c1", "note": "(stereo not drawn)", "activity change, negative = inhibition": "inactive: 4.59%"}
{"compound": "COc1cccc(-n2cc(C(=O)Nc3cc(OC)c(OC)c(OC)c3)c3ccccc3c2=O)c1", "activity change, negative = inhibition": "inactive: 9.04%"}
{"compound": "COC(=O)CNC(c1ccccc1)c1cc(Br)ccc1NC(=O)c1ccccc1", "note": "(stereo not drawn)", "activity change, negative = inhibition": "inactive: -0.567%"}
{"compound": "Cc1cc(C)cc(NC2=C(c3ccccc3)C(=O)c3ccccc32)c1", "outcome": "inactive"}
{"compound": "CCOC(=O)C1CCCN(C(=O)Cn2ncc3c(C)n(Cc4ccccc4F)c(C)c3c2=O)C1", "note": "(stereo not drawn)", "activity change, negative = inhibition": "inactive: -1.58%"}
{"compound": "COc1cc(C2C(=O)N(C3CCCCC3)CC(=O)N2CCC2=CCCCC2)ccc1OC(C)C", "note": "(stereo not drawn)", "activity change, negative = inhibition": "inactive: 8.09%"}
{"compound": "COc1cccc(CNC(=O)CSc2nnc(C)c3c(C)n(-c4ccccc4)nc23)c1OC", "activity change, negative = inhibition": "inactive: -7.47%"}
{"compound": "Cc1ccc2oc(=O)c3cc(C(=O)Nc4ccccc4C(N)=O)sc3c2c1", "outcome": "inactive"}
{"compound": "Cc1onc(-c2c(F)cccc2Cl)c1C(=O)Nc1ccc(OC(C)C)cc1", "activity change, negative = inhibition": "inactive: 2.19%"}
{"compound": "CCc1cccc(C)c1NC(=O)C1CCN(c2nn3c(=O)cc(C)nc3s2)CC1", "outcome": "inactive"}
{"compound": "COc1ccc(-c2cc(C(F)(F)F)nc(SCC(=O)N3CCCCC3C)n2)cc1OC", "note": "(stereo not drawn)", "activity change, negative = inhibition": "inactive: 10.2%"}
{"compound": "NC1=N[C@@]2(c3cc(NC(=O)c4ccc(F)cn4)ccc3F)COC[C@@H]2CS1", "activity change, negative = inhibition": "inactive: -4.29%"}
{"compound": "O=C(Cn1ccc2ccccc2c1=O)NCCC(=O)Nc1ccc(F)cc1F", "activity change, negative = inhibition": "inactive: -5.23%"}
{"compound": "COc1ccccc1N1CCN(C(=O)c2c(C)oc3ncn(CC(C)C)c(=O)c23)CC1", "activity change, negative = inhibition": "inactive: 4.78%"}
{"compound": "CCOc1ccc(Nc2cc(C)nc3nc(Cc4ccc(Cl)cc4)nn23)cc1", "activity change, negative = inhibition": "inactive: 3.28%"}
{"compound": "COc1ccc(S(=O)(=O)c2c(O)c3ccc(C(=O)NCc4ccccc4)cc3[nH]c2=O)cc1", "activity change, negative = inhibition": "inactive: 3.67%"}
{"compound": "CCOC(=O)c1cnc2c(ccc3ccccc32)c1Nc1ccc(OCC)cc1", "activity change, negative = inhibition": "inactive: -8.98%"}
{"compound": "CCOCCCn1c(=N)c(C(=O)NCc2cccnc2)cc2c(=O)n3cc(C)ccc3nc21", "activity change, negative = inhibition": "inactive: -6.71%"}
{"compound": "O=C1CCCc2cc(S(=O)(=O)NCC3CCC(C(=O)NCc4ccccc4Cl)CC3)ccc2N1", "note": "(stereo not drawn)", "activity change, negative = inhibition": "inactive: 3.29%"}
{"compound": "Cc1cccc(NC(=O)Nc2ccc(Br)cc2)n1", "activity change, negative = inhibition": "inactive: -1.48%"}
{"compound": "Fc1ccc(N2CCN(c3ncnc4c3nc3n4CCCCC3)CC2)cc1", "outcome": "inactive"}
{"compound": "COc1ccc(CCNC(=O)c2cc3c(s2)-c2ccccc2OC3)cc1OC", "activity change, negative = inhibition": "inactive: -1.77%"}
{"compound": "Cc1ccc(NC(=O)CN2C(=O)CCc3cc(S(=O)(=O)N4CCCCC4)ccc32)cc1C", "activity change, negative = inhibition": "inactive: 65.6%"}
{"compound": "COc1cccc(C(=O)Nc2ccc(-n3nncc3-c3ccccc3)cc2)c1", "outcome": "inactive"}
